Data published in the supplement of paper PMC10369915.
Some of the results follow. Cut-off read from the data, not from the text of the source: active = 3.2 or more and inactive = the rest. The signal is at background level for most entries.

B1: PHAG1_HUMAN_163 (peptide)
chain: GLGMEGPYEVLKDSS
B2: PGFRA_HUMAN_572 (peptide)
chain: ISPDGHEYIYVDPMQ
B3: PHAG1_HUMAN_387 (peptide)
chain: SEEPEPDYEAIQTLN
B4: PLCG1_HUMAN_1253 (peptide)
chain: EGSFESRYQQPFEDF
B5: PERI_HUMAN_470 (peptide)
chain: DKSSAHSYGGGGGGG
B6: PKDCC_HUMAN_148 (peptide)
chain: AQYMGSGYTKAVYRV
B7: PGFS_HUMAN_108 (peptide)
chain: KELGFKRYNSLSILP
B8: PHB_HUMAN_114 (peptide)
chain: FTSIGEDYDERVLPS
B9: ARGAL_HUMAN_152 (peptide)
chain: GAERNLLYEDAHRAG
B10: PGFRB_HUMAN_686 (peptide)
chain: IITEYCRYGDLVDYL
B11: ARAF_HUMAN_302_YA (peptide)
chain: GARDSGAYWEVPPSE
B12: PGFRB_HUMAN_686_YA (peptide)
chain: IITEACRYGDLVDAL
B13: PGFRA_HUMAN_762_YA (peptide)
chain: SDIQRSLYDRPASAK
B14: PGM1_HUMAN_353 (peptide)
chain: SATKIALYETPTGWK
B15: PKD1_HUMAN_4237 (peptide)
chain: NQATEDVYQLEQQLH
B16: PKP4_HUMAN_478_YA (peptide)
chain: ALNTTATYAEPARPI
B17: PHB2_HUMAN_128 (peptide)
chain: YQRLGLDYEERVLPS
B18: PLCG1_HUMAN_775 (peptide)
chain: EPDYGALYEGRNPGF
B19: PGFRB_HUMAN_581 (peptide)
chain: SDGHEYIYVDPMQLP
B20: PGK2_HUMAN_76 (peptide)
chain: GVPMPDKYSLAPVAV
B21: PHAG1_HUMAN_227 (peptide)
chain: GKAEFAEYASVDRNK
B22: ARHG1_HUMAN_738 (peptide)
chain: WDQEAQIYELVAQTV
B23: PGAM2_HUMAN_133 (peptide)
chain: MDEKHPYYNSISKER
B24: PECA1_HUMAN_713 (peptide)
chain: KKDTETVYSEVRKAV
B25: PGK1_HUMAN_76 (peptide)
chain: GVPMPDKYSLEPVAV
B26: PGFRB_HUMAN_857 (peptide)
chain: DIMRDSNYISKGSTF
B27: PGFRA_HUMAN_742 (peptide)
chain: KQADTTQYVPMLERK
B28: PGFRB_HUMAN_579_YA (peptide)
chain: VSSDGHEYIAVDPMQ
B29: PKP4_HUMAN_478 (peptide)
chain: ALNTTATYAEPYRPI
B30: PFKAP_HUMAN_651_YA (peptide)
chain: NATTDFIYQLASEEG
B31: PGFRB_HUMAN_763 (peptide)
chain: DMKGDVKYADIESSN
B32: PHB2_HUMAN_128_YA (peptide)
chain: AQRLGLDYEERVLPS
B33: PHF8_HUMAN_704 (peptide)
chain: EFDIEEDYTTDEDMV
B34: PHB_HUMAN_249 (peptide)
chain: EAAEDIAYQLSRSRN
B35: PGAM2_HUMAN_133_YA (peptide)
chain: MDEKHPAYNSISKER
B36: PKP4_HUMAN_415_YA (peptide)
chain: DLHITPIYEGRTAAS

What was measured:
Assay in all cases: enrichment score (SH2-bound / input frequency) (ratio); bacterial display of known human phosphotyrosine sites (pTyr-Var adds point mutants) read by sequencing; higher = stronger binding; tyrosines were phosphorylated by kinases first
Details in all cases: peptide library: Human pTyr
[1] = target: SHP2 C-SH2 domain E139D
[2] = target: SHP2 C-SH2 domain wild-type
[3] = target: SHP2 N-SH2 domain L43F
[4] = target: SHP2 N-SH2 domain T42A
[5] = target: SHP2 N-SH2 domain T52S
[6] = target: SHP2 N-SH2 domain wild-type
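Note: displayed peptides selected on beads carrying the immobilized SH2 domain, with library peptides lacking any tyrosine serving as negative controls.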

Row | Binder | enrichment score [1] | enrichment score [2] | enrichment score [3] | enrichment score [4] | enrichment score [5] | enrichment score [6]
1 | B1 | inactive: 0.686 | inactive: 0.599 | inactive: 0.892 | inactive: 0.745 | inactive: 0.67 | inactive: 0.816
2 | B2 | inactive: 0.65 | inactive: 0.551 | inactive: 0.717 | inactive: 0.629 | inactive: 0.703 | inactive: 0.812
3 | B3 | inactive: 1.13 | inactive: 1.01 | inactive: 1.01 | inactive: 1.09 | inactive: 1.22 | inactive: 1.15
4 | B4 | inactive: 0.6 | inactive: 0.611 | inactive: 0.628 | inactive: 0.576 | inactive: 0.632 | inactive: 0.689
5 | B5 | inactive: 0.723 | inactive: 0.598 | inactive: 0.584 | inactive: 0.673 | inactive: 0.728 | inactive: 0.626
6 | B6 | inactive: 0.718 | inactive: 0.873 | inactive: 1.09 | inactive: 0.759 | inactive: 0.916 | inactive: 0.951
7 | B7 | inactive: 0.88 | inactive: 0.736 | inactive: 0.776 | inactive: 0.661 | inactive: 0.842 | inactive: 0.959
8 | B8 | inactive: 0.492 | inactive: 0.476 | inactive: 0.519 | inactive: 0.669 | inactive: 0.646 | inactive: 0.614
9 | B9 | inactive: 0.553 | inactive: 0.475 | inactive: 0.578 | inactive: 0.5 | inactive: 0.641 | inactive: 0.62
10 | B10 | inactive: 1.61 | inactive: 1.34 | inactive: 1.44 | inactive: 1.42 | inactive: 1.7 | inactive: 1.76
11 | B11 | inactive: 0.678 | inactive: 0.627 | inactive: 0.726 | inactive: 0.666 | inactive: 0.726 | inactive: 0.619
12 | B12 | inactive: 1.79 | inactive: 1.4 | inactive: 1.5 | inactive: 1.09 | inactive: 1.8 | inactive: 1.77
13 | B13 | inactive: 0.809 | inactive: 0.675 | inactive: 0.916 | inactive: 0.812 | inactive: 0.797 | inactive: 0.835
14 | B14 | inactive: 0.972 | inactive: 0.867 | inactive: 0.888 | inactive: 1.09 | inactive: 0.967 | inactive: 0.871
15 | B15 | inactive: 0.92 | inactive: 0.617 | inactive: 0.877 | inactive: 0.712 | inactive: 0.843 | inactive: 0.824
16 | B16 | inactive: 0.704 | inactive: 0.553 | inactive: 0.746 | inactive: 0.607 | inactive: 0.626 | inactive: 0.63
17 | B17 | inactive: 0.603 | inactive: 0.775 | inactive: 0.505 | inactive: 0.503 | inactive: 0.425 | inactive: 0.719
18 | B18 | inactive: 0.6 | inactive: 0.386 | inactive: 0.507 | inactive: 0.358 | inactive: 0.41 | inactive: 0.484

Row | Binder | enrichment score [1] | enrichment score [2] | enrichment score [3] | enrichment score [4] | enrichment score [5] | enrichment score [6]
19 | B19 | inactive: 0.813 | inactive: 0.673 | inactive: 0.831 | inactive: 0.891 | inactive: 0.667 | inactive: 0.861
20 | B20 | inactive: 0.806 | inactive: 0.644 | inactive: 0.619 | inactive: 0.748 | inactive: 0.572 | inactive: 0.671
21 | B21 | inactive: 0.852 | inactive: 0.71 | inactive: 0.761 | inactive: 0.698 | inactive: 0.726 | inactive: 0.836
22 | B22 | inactive: 0.818 | inactive: 0.768 | inactive: 0.815 | inactive: 0.681 | inactive: 0.654 | inactive: 0.86
23 | B23 | inactive: 0.733 | inactive: 0.811 | inactive: 0.763 | inactive: 0.783 | inactive: 0.987 | inactive: 0.798
24 | B24 | active: 7.27 | active: 13 | inactive: 0.947 | inactive: 1.04 | inactive: 1.19 | inactive: 0.969
25 | B25 | inactive: 0.565 | inactive: 0.545 | inactive: 0.642 | inactive: 0.744 | inactive: 0.645 | inactive: 0.743
26 | B26 | inactive: 0.783 | inactive: 0.655 | inactive: 0.529 | inactive: 0.874 | inactive: 0.609 | inactive: 0.727
27 | B27 | inactive: 1.09 | inactive: 0.757 | inactive: 0.793 | inactive: 0.98 | inactive: 0.722 | inactive: 1
28 | B28 | inactive: 0.556 | inactive: 0.452 | inactive: 0.609 | inactive: 0.718 | inactive: 0.49 | inactive: 0.56
29 | B29 | inactive: 0.646 | inactive: 0.487 | inactive: 0.682 | inactive: 0.639 | inactive: 0.681 | inactive: 0.633
30 | B30 | inactive: 0.78 | inactive: 0.902 | inactive: 0.868 | inactive: 0.899 | inactive: 0.611 | inactive: 0.989
31 | B31 | active: 3.98 | active: 8.88 | active: 3.9 | active: 16.2 | inactive: 2.7 | inactive: 1.12
32 | B32 | inactive: 0.608 | inactive: 0.646 | inactive: 0.528 | inactive: 0.576 | inactive: 0.494 | inactive: 0.653
33 | B33 | inactive: 1.13 | inactive: 1.37 | inactive: 0.988 | inactive: 1.12 | inactive: 1.37 | inactive: 1.21
34 | B34 | inactive: 0.625 | inactive: 0.467 | inactive: 0.582 | inactive: 0.516 | inactive: 0.577 | inactive: 0.528
35 | B35 | inactive: 0.853 | inactive: 0.754 | inactive: 1.05 | inactive: 0.741 | inactive: 0.853 | inactive: 0.821
36 | B36 | inactive: 0.566 | inactive: 0.466 | inactive: 0.668 | inactive: 0.565 | inactive: 0.516 | inactive: 0.585
